This is one part of the list. Binding of human transcription factors and regulators to the viral nucleoprotein by AlphaScreen, crude cell-free proteins, amounts not normalised, one pass. Fold of the Venus control; higher = more signal. No active / inactive call. Single-pass screen; sequences are the whole Swiss-Prot entries looked up by name.
B1: ZBTB11, O95625 (protein)
chain: MSSEESYRAILRYLTNEREPYAPGTEGNVKRKIRKAAACYVVRGGTLYYQRRQRHRKTFAELEVVLQPERRRDLIEAAHLGPGGTHHTRHQTWHYLSKTYWWRGILKQVKDYIKQCSKCQEKLDRSRPISDVSEMLEELGLDLESGEESNESEDDLSNFTSSPTTASKPAKKKPVSKHELVFVDTKGVVKRSSPKHCQAVLKQLNEQRLSNQFCDVTLLIEGEEYKAHKSVLSANSEYFRDLFIEKGAVSSHEAVVDLSGFCKASFLPLLEFAYTSVLSFDFCSMADVAILARHLFMSEVLEICESVHKLMEEKQLTVYKKGEVQTVASTQDLRVQNGGTAPPVASSEGTTTSLPTELGDCEIVLLVNGELPEAEQNGEVGRQPEPQVSSEAESALSSVGCIADSHPEMESVDLITKNNQTELETSNNRENNTVSNIHPKLSKENVISSSPEDSGMGNDISAEDICAEDIPKHRQKVDQPLKDQENLVASTAKTDFGPDDDTYRSRLRQRSVNEGAYIRLHKGMEKKLQKRKAVPKSAVQQVAQKLVQRGKKMKQPKRDAKENTEEASHKCGECGMVFQRRYALIMHKLKHERARDYKCPLCKKQFQYSASLRAHLIRHTRKDAPSSSSSNSTSNEASGTSSEKGRTKREFICSICGRTLPKLYSLRIHMLKHTGVKPHACQVCGKTFIYKHGLKLHQSLHQSQKQFQCELCVKSFVTKRSLQEHMSIHTGESKYLCSVCGKSFHRGSGLSKHFKKHQPKPEVRGYHCTQCEKSFFEARDLRQHMNKHLGVKPFQCQFCDKCYSWKKDWYSHVKSHSVTEPYRCNICGKEFYEKALFRRHVKKATHGKKGRAKQNLERVCEKCGRKFTQLREYRRHMNNHEGVKPFECLTCGVAWADARSLKRHVRTHTGERPYVCPVCSEAYIDARTLRKHMTKFHRDYVPCKIMLEKDTLQFHNQGTQVAHAVSILTAGMQEQESSGPQELETVVVTGETMEALEAVAATEEYPSVSTLSDQSIMQVVNYVLAQQQGQKLSEVAEAIQTVKVEVAHISGGE
B2: PARK7, Q99497 (protein)
chain: MASKRALVILAKGAEEMETVIPVDVMRRAGIKVTVAGLAGKDPVQCSRDVVICPDASLEDAKKEGPYDVVVLPGGNLGAQNLSESAAVKEILKEQENRKGLIAAICAGPTALLAHEIGFGSKVTTHPLAKDKMMNGGHYTYSENRVEKDGLILTSRGPGTSFEFALAIVEALNGKEVAAQVKAPLVLKD
B3: ZBTB14, O43829 (protein)
chain: MEFFISMSETIKYNDDDHKTLFLKTLNEQRLEGEFCDIAIVVEDVKFRAHRCVLAACSTYFKKLFKKLEVDSSSVIEIDFLRSDIFEEVLNYMYTAKISVKKEDVNLMMSSGQILGIRFLDKLCSQKRDVSSPDENNGQSKSKYCLKINRPIGDAADTQDDDVEEIGDQDDSPSDDTVEGTPPSQEDGKSPTTTLRVQEAILKELGSEEVRKVNCYGQEVESMETPESKDLGSQTPQALTFNDGMSEVKDEQTPGWTTAASDMKFEYLLYGHHREQIACQACGKTFSDEGRLRKHEKLHTADRPFVCEMCTKGFTTQAHLKEHLKIHTGYKPYSCEVCGKSFIRAPDLKKHERVHSNERPFACHMCDKAFKHKSHLKDHERRHRGEKPFVCGSCTKAFAKASDLKRHENNMHSERKQVTPSAIQSETEQLQAAAMAAEAEQQLETIACS
B4: HES6, Q96HZ4 (protein)
chain: MAPPAAPGRDRVGREDEDGWETRGDRKARKPLVEKKRRARINESLQELRLLLAGAEVQAKLENAEVLELTVRRVQGVLRGRAREREQLQAEASERFAAGYIQCMHEVHTFVSTCQAIDATVAAELLNHLLESMPLREGSSFQDLLGDALAGPPRAPGRSGWPAGGAPGSPIPSPPGPGDDLCSDLEEAPEAELSQAPAEGPDLVPAALGSLTTAQIARSVWRPW
B5: TRIM29, Q14134 (protein)
chain: MEAADASRSNGSSPEARDARSPSGPSGSLENGTKADGKDAKTTNGHGGEAAEGKSLGSALKPGEGRSALFAGNEWRRPIIQFVESGDDKNSNYFSMDSMEGKRSPYAGLQLGAAKKPPVTFAEKGELRKSIFSESRKPTVSIMEPGETRRNSYPRADTGLFSRSKSGSEEVLCDSCIGNKQKAVKSCLVCQASFCELHLKPHLEGAAFRDHQLLEPIRDFEARKCPVHGKTMELFCQTDQTCICYLCMFQEHKNHSTVTVEEAKAEKETELSLQKEQLQLKIIEIEDEAEKWQKEKDRIKSFTTNEKAILEQNFRDLVRDLEKQKEEVRAALEQREQDAVDQVKVIMDALDERAKVLHEDKQTREQLHSISDSVLFLQEFGALMSNYSLPPPLPTYHVLLEGEGLGQSLGNFKDDLLNVCMRHVEKMCKADLSRNFIERNHMENGGDHRYVNNYTNSFGGEWSAPDTMKRYSMYLTPKGGVRTSYQPSSPGRFTKETTQKNFNNLYGTKGNYTSRVWEYSSSIQNSDNDLPVVQGSSSFSLKGYPSLMRSQSPKAQPQTWKSGKQTMLSHYRPFYVNKGNGIGSNEAP
B6: CSRNP3, Q8WYN3 (protein)
chain: MSGILKRKFEEVDGSSPCSSVRESDDEVSSSESADSGDSVNPSTSSHFTPSSILKREKRLRTKNVHFSCVTVYYFTRRQGFTSVPSQGGSTLGMSSRHNSVRQYTLGEFAREQERLHREMLREHLREEKLNSLKLKMTKNGTVESEEASTLTLDDISDDDIDLDNTEVDEYFFLQPLPTKKRRALLRASGVKKIDVEEKHELRAIRLSREDCGCDCRVFCDPDTCTCSLAGIKCQVDRMSFPCGCTKEGCSNTAGRIEFNPIRVRTHFLHTIMKLELEKNREQQIPTLNGCHSEISAHSSSMGPVAHSVEYSIADSFEIETEPQAAVLHLQSAEELDCQGEEEEEEEDGSSFCSGVTDSSTQSLAPSESDEEEEEEEEEEEEEDDDDDKGDGFVEGLGTHAEVVPLPSVLCYSDGTAVHESHAKNASFYANSSTLYYQIDSHIPGTPNQISENYSERDTVKNGTLSLVPYTMTPEQFVDYARQAEEAYGASHYPAANPSVIVCCSSSENDSGVPCNSLYPEHRSNHPQVEFHSYLKGPSQEGFVSALNGDSHISEHPAENSLSLAEKSILHEECIKSPVVETVPV

molecular target: nucleoprotein N of Crimean-Congo hemorrhagic fever virus; experiment: AlphaScreen luminescence signal relative to Venus negative control (fold); higher = stronger binding to CCHFV N
Protocol: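 AlphaScreen binding of cell-free made, FLAG-GST-tagged human transcription factors and regulators (crude translation products) to biotinylated N protein; signal as fold of the FLAG-GST-Venus control. One pass.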

Binder | AlphaScreen luminescence signal
B1 | 3.53
B2 | 1.12
B3 | 3.72
B4 | 1.86
B5 | 6.19
B6 | 2.65

Reference: the supplement of paper PMC12423691
